{
  "source": "the supplement of paper PMC11417369",
  "note": "± gives the standard deviation of the averaged measurements. The list shows a part of the results.",
  "data": [
    {"test_system": "PfAP2-I AP2 domain 3 (GST-tagged)", "experiment": "gcPBM binding intensity (ln(normalized median fluorescence intensity)); higher = stronger DNA binding", "how_it_was_run": "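Probes on an Agilent 4 × 180k array were primer-extended, double-stranded and 36 bp long, taken from intergenic genomic regions, with negative controls added. GST-tagged P. falciparum DNA-binding domains from E. coli, about 25 μg on average, were applied to the array for 1 h in 1× PBS containing 1% milk, 0.2 mg/ml BSA, 0.5% salmon testes DNA and 0.03% Triton X-100. Binding intensity, obtained after Alexa488 anti-GST antibody detection and a 488 nm scan, is the highest Masliner-normalised natural-log median intensity across replicate spots of either probe orientation.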", "values": [
      {"sequence": "TAAAAAAATATATATACATGCATAGAAAAAAAAAAA [TGCATGCA_site552]", "gcPBM binding intensity (ln)": "7.92 ± 0.91"},
      {"sequence": "TTTATACACAAAAAATGTACATATATATAATGAATT [XGTACX_site1195]", "gcPBM binding intensity (ln)": "7.97 ± 0.57"},
      {"sequence": "CGTTTATATAGTGATGCATGCATTGTTAACATGGTT [TGCATGCA_site418]", "gcPBM binding intensity (ln)": "7.99 ± 0.67"},
      {"sequence": "CGCACAAAAATATACACACACACATATATATTTATT [CACACA_site3645]", "gcPBM binding intensity (ln)": "7.87 ± 0.45"},
      {"sequence": "TGTATGTCTTTATTTTGTACACAATATAAAAAATTA [XGTACX_site5441]", "gcPBM binding intensity (ln)": "8.04 ± 0.22"},
      {"sequence": "TTTAATTTTTTTTAAACACACACATTACATTCAAAA [CACACA_site7926]", "gcPBM binding intensity (ln)": "7.82 ± 0.41"},
      {"sequence": "AATATATAATTTTATAGTACATAATAAAAGAACAGG [XGTACX_site724]", "gcPBM binding intensity (ln)": "8.29 ± 0.42"},
      {"sequence": "TTATATTATGCTTGAATGCACTTTGAAGCACAATCT [GTGCAC_site9789]", "gcPBM binding intensity (ln)": "10.25 ± 0.071"},
      {"sequence": "TATTCAACATAATATGCACACAAAAATTATGGAACG [CACACA_site8660]", "gcPBM binding intensity (ln)": "8.795 ± 0.021"},
      {"sequence": "ATCACATAAAATATGAATATATATTTTATATATATA [CACACA_negctrl_site340]", "gcPBM binding intensity (ln)": "8.31 ± 0.41"},
      {"sequence": "TATATTTACGTATGTCGAACGTTATTTTGAACAACC [CACACA_negctrl_site1261]", "gcPBM binding intensity (ln)": "7.75 ± 0.58"},
      {"sequence": "TTAAAAAAAAAAAGGTGTACTATAATTTAATATCAC [XGTACX_site6316]", "gcPBM binding intensity (ln)": "8.28 ± 0.26"},
      {"sequence": "TGGGTAAACAGACACACACACATATAGATTTATATA [CACACA_site7026]", "gcPBM binding intensity (ln)": "7.71 ± 0.62"},
      {"sequence": "CTTCCAATAAAAAATGCACACATTGAAAATATTGAA [CACACA_site2688]", "gcPBM binding intensity (ln)": "8.44 ± 0.34"},
      {"sequence": "AAATTATATGAACATTGTACTTTATATATGTAAGAA [XGTACX_site1611]", "gcPBM binding intensity (ln)": "8 ± 0.24"},
      {"sequence": "ACACACATATATACATGTACATATATATATATATAT [XGTACX_site451]", "gcPBM binding intensity (ln)": "9.38 ± 0.75"},
      {"sequence": "TATTTTGTTCTTTCCACACACAAATACAGATATTGT [CACACA_site6097]", "gcPBM binding intensity (ln)": "8.07 ± 0.72"},
      {"sequence": "TCTTATCCATATATTACACACTATAAATAGAAATTA [CACACA_site6274]", "gcPBM binding intensity (ln)": "7.93 ± 0.47"},
      {"sequence": "ATTTGTATATATTAATGTACACACATGCGTATGTTC [XGTACX_site7579]", "gcPBM binding intensity (ln)": "7.83 ± 0.66"},
      {"sequence": "TATAAATATAAATATACACACATATATTTATTTATA [CACACA_site6890]", "gcPBM binding intensity (ln)": "7.39 ± 0.23"},
      {"sequence": "AACAGTAACATTGAATGTACTTAATTTTAAGAAAAT [XGTACX_site2971]", "gcPBM binding intensity (ln)": "7.61 ± 0.42"},
      {"sequence": "ACACATAATATGTGTAGTACTTTTTCTTTAACATTA [XGTACX_site1436]", "gcPBM binding intensity (ln)": "7.92 ± 0.45"},
      {"sequence": "TTAAAATAAAGAAAATGTACATAAATTAAAATAAAG [XGTACX_site2281]", "gcPBM binding intensity (ln)": "8.03 ± 0.65"},
      {"sequence": "TTTTTTTTTTTTTTTATAGTACATTACCAAAAAAAA [CACACA_negctrl_site1197]", "gcPBM binding intensity (ln)": "8.16 ± 0.71"},
      {"sequence": "ATTTATTGACTATTTACACACATATTTATTATAATA [CACACA_site1624]", "gcPBM binding intensity (ln)": "8.11 ± 0.49"},
      {"sequence": "TATATTTTGTTCTGTTGTACTAAAAAAATCTTTATA [XGTACX_site8372]", "gcPBM binding intensity (ln)": "7.76 ± 0.38"},
      {"sequence": "TTACTTTTAACAAATGTGCGCAGTTATCACACAGAC", "gcPBM binding intensity (ln)": "8.67 ± 0.3"},
      {"sequence": "ACAAAACAAAAAAACTCACACATATACGGCATGTCA [CACACA_site5608]", "gcPBM binding intensity (ln)": "7.6 ± 0.64"},
      {"sequence": "ATATATATATATATATGTACTAAGAATTCTTTAAAA [XGTACX_site8476]", "gcPBM binding intensity (ln)": "9.55 ± 0.54"},
      {"sequence": "ATTTATTTATTTATATGTACATATTTAAAGAGTTCA [XGTACX_site7631]", "gcPBM binding intensity (ln)": "7.82 ± 0.55"},
      {"sequence": "ATTATACATATATAAGTGCAATAATGTTTTTTCCTT", "gcPBM binding intensity (ln)": "10.5 ± 0.57"},
      {"sequence": "TATACATATGAAAATACACACATACATACATATATA [CACACA_site8484]", "gcPBM binding intensity (ln)": "7.64 ± 0.3"},
      {"sequence": "AAGGTATATATAACTACACACTTATATATAATCTAA [CACACA_site92]", "gcPBM binding intensity (ln)": "7.53 ± 0.68"},
      {"sequence": "ATACATATTTTACATTCACACAACAAATTTATATTT [CACACA_site4700]", "gcPBM binding intensity (ln)": "7.95 ± 0.67"},
      {"sequence": "AGGAACAAAATATACTGTACTTTATTATTTTCAAAA [XGTACX_site4421]", "gcPBM binding intensity (ln)": "7.74 ± 0.53"},
      {"sequence": "AACAGACAGAAACACACACACATATATATATATATA [CACACA_site3394]", "gcPBM binding intensity (ln)": "9.24 ± 0.23"},
      {"sequence": "TAATAAAATATGTACACACATACACCCATATATATA [CACACA_site1220]", "gcPBM binding intensity (ln)": "8.24 ± 0.52"},
      {"sequence": "TGTAGTCTGGAGAAAAGTACATAGTATCTGGTAACC [XGTACX_site2025]", "gcPBM binding intensity (ln)": "7.77 ± 0.78"},
      {"sequence": "ATTTTCCAAAATAATTGTACAGGAAAGAAATAATTA [XGTACX_site7424]", "gcPBM binding intensity (ln)": "7.88 ± 0.49"},
      {"sequence": "ATATATTTTAATTGATGTACTTTTTTATGTTAATGA [XGTACX_site4316]", "gcPBM binding intensity (ln)": "8.005 ± 0.035"},
      {"sequence": "AATGTGTACGCACGCACACACAAAAAAATATATATA [CACACA_site2913]", "gcPBM binding intensity (ln)": "9.05 ± 0.3"},
      {"sequence": "ATCTATATCTATAATACACACATAAATGGATATATA [CACACA_site6284]", "gcPBM binding intensity (ln)": "7.81 ± 0.44"},
      {"sequence": "CAAGCCCTTCTGCTTACACACAGTAATTATTGTGCA [CACACA_site7399]", "gcPBM binding intensity (ln)": "7.73 ± 0.79"},
      {"sequence": "TAAATATATTTATAAGCACACACTAATAAACCAACA [CACACA_site8022]", "gcPBM binding intensity (ln)": "8.49 ± 0.33"}
    ]}
  ]
}
